The values that follow come from PubChem BioAssay AID1508642 (National Center for Advancing Translational Sciences (NCATS), 2021).

The structures appear in SMILES notation. The whole screen tested about 43,000 compounds, of which about 200 (0.47%) were called active. Another 12% or so got no clear call; they are omitted. Calls come from the whole dose curve; as a rule, active = well fitted cell-killing curve with a large enough effect; inconclusive = small, poorly fitted or top-dose-only effect, or effect the other way; inactive = flat fitted curve, though single readings scatter. Some of the results follow.
% is set by controls: 0 for no effect and ±100 for the full control effect.

This assay is described as follows: Cell viability qHTS assay in S16 Pmp22-F2sN cells. Note: nearly all actives have a fitted effect of over 65% in size. Particulars: S16 Pmp22-F2sN Schwann cells viability, CellTiter-Glo, 24 h; series mostly up to 57.5 µM; activity change, negative = cytotoxicity: at the top concentration. The essentials: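 S16 Pmp22-F2sN Schwann cells (500-1,000/well) in phenol-red-free DMEM with 10% FBS received 23 nL compound by pin tool for 24 h at 37 °C. Viability was then read as CellTiter-Glo luminescence after 15 min at room temperature.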
For `Cc1ccc(NC(=O)Cn2ccn(-c3ccc(F)c(F)c3)c(=O)c2=O)cc1C`, the “activity change, negative = cytotoxicity” value was inactive: 3.58%. Consider `COC(=O)c1cc(NC(=O)c2nn(C)c3c2COc2ccccc2-3)cc(C(=O)OC)c1`, for which the “activity change, negative = cytotoxicity” value is inactive: 6.37%. To `Nc1c(C(=O)Nc2ccc(F)c(F)c2)sc2nc(-c3ccncc3)ccc12` belongs inactive: 3.32%; to `COc1cccc(CNC(=O)c2cc(C)nc3c2c(C)nn3-c2cccc(F)c2)c1`, inactive: -23.1%; to `CCOC(=O)c1ccc(NC(=O)Nc2cc3c(cc2N2CCCC2)n(C)c(=O)n3C)cc1`, inactive: 1.8%. To `Cc1ccc(S(=O)(=O)NCCc2cn3ccsc3n2)cc1` belongs inactive: 14.6%; to `CCC(CC)C(=O)Nc1nc2c(s1)CC(C)CC2` (stereo not drawn), inactive: -3.09%; to `COc1ccc(-n2nnnc2C2CCN(S(=O)(=O)c3ccc(C(C)(C)C)cc3)CC2)cc1`, inactive: -0.186%.

As for `O=C(COCc1cc(-c2ccc3c(c2)OCO3)on1)N1CCN(c2ccccc2)CC1`, the “activity change, negative = cytotoxicity” value is inactive: -20.2%.

For `Cc1cc2c(cc3c(SCc4nc(-c5ccccc5)oc4C)nnc(C)n32)o1`, the “activity change, negative = cytotoxicity” value is inactive: -3.66%.

As to `Cc1ccc(N2CCN(S(=O)(=O)c3ccc(F)c(C(=O)Nc4ccc(Cl)cc4Cl)c3)CC2C)cc1` (stereo not drawn), the “activity change, negative = cytotoxicity” value was inactive: 1.5%.

`Cc1cc(C)cc(NC(=O)Cn2nnc(-c3nc(-c4ccncc4)no3)c2N)c1`: the “activity change, negative = cytotoxicity” value was inactive: 3.13%. Consider `CCn1ccc2c(OCC(=O)Nc3ccccc3C)cccc2c1=O`, for which the “activity change, negative = cytotoxicity” value was inactive: -9.11%. As for `CC(=O)c1ccc(NC(=O)c2ccc(-c3nc(CSc4ccccc4)c(C)o3)cc2)cc1`, the “activity change, negative = cytotoxicity” value was inactive: 19.4%. To `Fc1ccc(-c2noc3ncnc(NCC4CCN(Cc5ccc(Cl)cc5)CC4)c23)cc1` belongs inactive: -27.9%; to `Cc1ccc2cc3c(N)nn(C(=O)c4cccc(F)c4)c3nc2c1`, inactive: 17.6%; to `Cc1ccc(CNC(=O)c2nnn(CC(=O)Nc3cc(C)ccc3C)c2N)cc1`, inactive: -1.65%. To `COc1ccc(CCNC(=O)c2cnc3sc(N4CCCC4)nn3c2=O)cc1OC` belongs inactive: -0.0225%; to `CN(C(=O)c1cc2c(s1)-c1ccc(Cl)cc1SC2)c1cccc(C(F)(F)F)c1`, inactive: 23.1%.

For `O=C(CN1C(=O)COc2ccc(S(=O)(=O)N3CCCCC3)cc21)NCc1ccc(Cl)cc1`, the “activity change, negative = cytotoxicity” value is inactive: 6.06%. For `CCOc1ccc(-c2cc(-c3nc(-c4cc(OC)c(OC)c(OC)c4)no3)[nH]n2)cc1` the value was inactive: -12.9%; for `Cc1ccc(CN(Cc2ccco2)C(=O)COc2ccc(Cl)cc2)o1`, inactive: -8.01%. To `Cc1cccc(N(C)C(=O)CCNS(=O)(=O)c2ccc3c(c2)CCN3C(=O)C2CC2)c1` belongs inactive: -3.96%. Take `N#Cc1ccc(CSc2nc3c(c(=O)[nH]2)CCCC3)cc1`: the “activity change, negative = cytotoxicity” value is inactive: -0.721%. For `COc1cc(C(CC(=O)NCCC(C)C)N2Cc3ccccc3C2=O)cc(OC)c1OC` (stereo not drawn) the value was inactive: 3.45%.

In the case of `COc1cc(NC(=O)CN2CCN(CC(=O)Nc3ccc(F)cc3)CC2)cc(OC)c1`, the “activity change, negative = cytotoxicity” value is inactive: 6.69%. For the molecule `Fc1ccc2ncc3c(-c4ccccc4)n[nH]c3c2c1`, the “activity change, negative = cytotoxicity” value was inactive: 8.76%. For the molecule `COC(=O)CCn1cnc2onc(-c3cc(F)cc(F)c3)c2c1=O`, the “activity change, negative = cytotoxicity” value is inactive: 20.3%. To `Cc1ccc(C)c(CS(=O)(=O)c2cn(CC(=O)N(C(C)C)C(C)C)c3ccccc23)c1` belongs inactive: 8.05%.

On to `Cn1ncc2c(Nc3cccc(F)c3)ncnc21`, for which the “activity change, negative = cytotoxicity” value is inactive: 15%.

As to `O=C(Nc1c(C(=O)Nc2ccccc2F)oc2ccccc12)c1cc2ccccc2o1`, the “activity change, negative = cytotoxicity” value is inactive: 4.44%. To `Cc1c(Cl)cccc1NC(=O)Cn1cnc2nc3c(cc2c1=O)CCCC3` belongs inactive: -0.314%.

On to `Cc1ccc(-n2ncc3c(N4CCC(Cc5ccccc5)CC4)ncnc32)cc1`, for which the “activity change, negative = cytotoxicity” value is inactive: 10.1%. To `O=C(c1ccc2c(c1)N(Cc1ccccc1F)C(=O)c1ccccc1S2=O)N1CCOCC1` (stereo not drawn) belongs inactive: 12.5%; to `CC(C)(C)CC(=O)NC1CC(=O)N(c2ccc3c(c2)OCCO3)C1` (stereo not drawn), inactive: 11.9%. To `Cc1ccc(CN2CCc3nc(N4CCN(C)CC4)ncc3C2)s1` belongs inactive: 5.32%. For `COc1ccc2c(c1)c1c(c(=O)n(-c3ccccc3)c(=O)n1CC(=O)Nc1ccc(C)c(C)c1)n2C` the value was inactive: 8.13%; for `CN(Cc1ccccc1)S(=O)(=O)c1nnc(NC(=O)c2ccccc2)s1`, inactive: 0.748%; for `Cc1ccc2c(c1)cc1c(=O)n(CC(=O)N3CCCCC3)nc(C)n12`, inactive: 16.1%. Turning to `Cc1cccc(N(C)C(=O)CSc2nc3ncccc3o2)c1`, the “activity change, negative = cytotoxicity” value is inactive: 4.13%. To `O=C(NCC1CCCO1)c1c[nH]c2ccc(S(=O)(=O)Nc3cccc(C(F)(F)F)c3)cc2c1=O` (stereo not drawn) belongs inactive: -1.77%; to `CCc1ccc(C(=O)c2cn(CC(=O)Nc3ccc(C)c(C)c3)c3ccccc3c2=O)cc1`, inactive: -13.6%; to `COc1ccc(OCC(=O)Nc2cccc(-c3nc4ccccc4s3)c2C)cc1`, inactive: 11.1%. Regarding `O=C(NCCOCCn1c(=O)oc2ccccc21)Nc1ccc(F)cc1`, the “activity change, negative = cytotoxicity” value was inactive: -2.56%.

`Cc1ccc(NC(=O)C2CCN(S(=O)(=O)c3c(C)noc3/C=C/c3ccco3)CC2)cc1C`: the “activity change, negative = cytotoxicity” value is inactive: 19.9%. To `Cc1ccc(S(=O)(=O)c2cn(C)c3cc(N4CCCC(C)C4)c(F)cc3c2=O)c(C)c1` (stereo not drawn) belongs inactive: -19.3%; to `Cc1cc2c(cc1S(=O)(=O)N(CCN(C)C)Cc1ccco1)OCC(=O)N2`, inactive: 9.52%; to `Cc1nc(N2CCCC2)ncc1C(=O)Nc1ccc(F)cc1F`, inactive: 4.58%. To `COc1ccccc1OCC(=O)Nc1nc(-c2ccc(Br)cc2)ns1` belongs inactive: 14.5%; to `CC1CCN(S(=O)(=O)c2ccc3c(c2)CCC(=O)N3CC(=O)Nc2cccc(C#N)c2)CC1`, inactive: 0.885%; to `CCCCNC(=O)CSc1nnc(C)c2c(C)n(-c3ccccc3)nc12`, inactive: -4.84%. In the case of `Cc1ccc(Cn2c(C)c(CNCCCc3ccccc3)c(C(=O)O)c2C)cc1`, the “activity change, negative = cytotoxicity” value is inactive: 16.1%. Take `Cc1ccc(-c2noc(CNC(=O)c3ccccc3)n2)cc1`: the “activity change, negative = cytotoxicity” value was inactive: -0.725%.

Consider `CCC1CN(C(=O)N2CCC(C(=O)NCc3ccccc3C)CC2)c2ccccc2O1` (stereo not drawn), for which the “activity change, negative = cytotoxicity” value was inactive: -19.2%. To `Cc1ccc(-c2cc3c(n2-c2ccc(C)cc2)CC(C)(C)CC3=O)cc1` belongs inactive: 11.3%.

In the case of `Cc1ccc(C2=NN(CC(=O)NCCN(CC(C)C)CC(C)C)C(=O)CC2)cc1`, the “activity change, negative = cytotoxicity” value was inactive: 8.06%. To `O=C(CSc1nnc2[nH]c(=O)cc(-c3ccccc3)n12)Nc1ccc(F)cc1F` belongs inactive: -2.36%; to `Cc1ccc(C2=CC(c3c(F)cccc3Cl)n3ncnc3N2)cc1C` (stereo not drawn), inactive: -4.13%. To `Cc1cc(C)cc(NC(=O)C2CCCN2S(=O)(=O)c2cccc3nsnc23)c1` (stereo not drawn) belongs inactive: -12.7%; to `CC(=O)Nc1cc(-c2nc3ccccc3s2)ccc1C`, inactive: -1.52%; to `Cc1cccc(-c2noc(-c3ccc(N4CCN(C)CC4)c([N+](=O)[O-])c3)n2)c1`, inactive: 2.42%.

Consider `COc1ccc(C)cc1NC(=O)c1ccc2c(c1)CCN2S(=O)(=O)c1ccc(Cl)cc1`, for which the “activity change, negative = cytotoxicity” value is inactive: -1.23%. To `COc1ccc(CNc2nc3c(c(=O)n(C)c(=O)n3C)n2Cc2ccccc2Cl)cc1` belongs inactive: -2.69%.
